From the RNAGym collection of RNA variant scans (doi:10.1073/pnas.2313332121)
This sample is rich in variants without activity.

B1: TPR 5TU (parent)
chain: GGAUCUUCUCGAUCUAACAAAAAAGACAAAUCUGCCACAAAGCUUGAGAGCAUCUUCGGAUGCAGAGGCGGCAGCCUUCGGUGGCGCGAUAGCGCCAACGUUCUCAACUAUGACACGCAAAACGCGUGCUCCGUUGAAUGGAGUUUAUCAUG

Variants of: B1
Assay: polymerase ribozyme fitness, log enrichment relative to wild type (log ratio); higher = more active; in vitro selection for triplet polymerase activity
Outline: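 Input and output libraries were sequenced on Illumina after a single in vitro selection round, run in triplicate on PCR-built, transcribed mutant libraries of each subunit of a heterodimeric triplet polymerase ribozyme. Selection annealed libraries to a biotinylated primer, the partner subunit and triplets, incubated them frozen at −7 °C, then gel-excised extended constructs for streptavidin-bead capture and RT-PCR. Genotypes with ≥10 input reads and ≥1 read per output were kept. Fitness is the logarithm, taken in base 2, of genotype enrichment divided by wild-type enrichment, using inverse-variance-weighted replicate averages.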

A16U A40G A49U C69A G80A C87G G100U G136A and A16G A26G C69G A73G C93A C105G cannot be ordered by “polymerase ribozyme fitness (log ratio)” value: no more than -4.2 for the first, no more than -4.2 for the second.

A16U A20U C51G U55A G58A A91C A106U A138U and A16G G86U C132U U135G cannot be ordered by “polymerase ribozyme fitness (log ratio)” value: no more than -4.2 for the first, no more than -4.2 for the second.

A16G C35U C38A A47U C116G C118U U144C and A16U A17G C85U A115U cannot be ordered by “polymerase ribozyme fitness (log ratio)” value: no more than -4.2 for the first, no more than -4.2 for the second.

A16G A22U A91U C93U U102G G128U and A16U A19C C43G A91U cannot be ordered by “polymerase ribozyme fitness (log ratio)” value: no more than -4.2 for the first, no more than -4.2 for the second.

A16G C27U A28G C43U U53A C57A U82G C93U and A16G A29C U56A cannot be ordered by “polymerase ribozyme fitness (log ratio)” value: no more than -4.2 for the first, no more than -4.2 for the second.

First: A16G G83A
Second: A16G C35A G59U C75G C93U C99A U101G
The “polymerase ribozyme fitness (log ratio)” value of the first is higher: -0.814 for the first, no more than -4.2 for the second.

A16U A37C G128U U130C and A16U A52G G80A G81C A121U U127A cannot be ordered by “polymerase ribozyme fitness (log ratio)” value: no more than -4.2 for the first, no more than -4.2 for the second.

Going from A16G G128U to A16G A30U C35U U45G G92A C108U C125U, the “polymerase ribozyme fitness (log ratio)” value falls from -3.4 to no more than -4.2.

A16U A19U U33G G42C and A16U A21G A28C C51G G65U A98G U135C A142G U148G cannot be ordered by “polymerase ribozyme fitness (log ratio)” value: no more than -4.2 for the first, no more than -4.2 for the second.

A16G U55A A89C U109C and A16G A20G A28U G58C G94U G136U cannot be ordered by “polymerase ribozyme fitness (log ratio)” value: no more than -4.2 for the first, no more than -4.2 for the second.

A16U A30U U56A G65C G68U G94U A150U and A16U C36U G59A C93G C118U U139G cannot be ordered by “polymerase ribozyme fitness (log ratio)” value: no more than -4.2 for the first, no more than -4.2 for the second.

First: A16U A41G
Second: A16G A24U U44A U90A
The “polymerase ribozyme fitness (log ratio)” value of the first is higher: -1.88 for the first, no more than -4.2 for the second.

A16G A23U A29G A47C G50A C87G A106U U135C A147U and A16U A29G A64C G68U C96G A121G U145C cannot be ordered by “polymerase ribozyme fitness (log ratio)” value: no more than -4.2 for the first, no more than -4.2 for the second.

Going from A16G G34U C93U U134G G140A to A16U A37C C63U C95U A119U A122U, the “polymerase ribozyme fitness (log ratio)” value rises from no more than -4.2 to -3.13.

A16U A19U C93G and A16G C27G C54G G83A G86U A97U C105U U146A cannot be ordered by “polymerase ribozyme fitness (log ratio)” value: no more than -4.2 for the first, no more than -4.2 for the second.

A16C U44A A142C and A16G A23U A29G A37U C43U C79G C99A A122G cannot be ordered by “polymerase ribozyme fitness (log ratio)” value: no more than -4.2 for the first, no more than -4.2 for the second.

A16U A28U C69A U78C G88C C132U G140C and A16G G34U A52U A60G C72G G88U A91U G140C cannot be ordered by “polymerase ribozyme fitness (log ratio)” value: no more than -4.2 for the first, no more than -4.2 for the second.

A16G A20U A24U C93U and A16U A24C A49G C51U U77A C79U C87A C125G cannot be ordered by “polymerase ribozyme fitness (log ratio)” value: no more than -4.2 for the first, no more than -4.2 for the second.

Compared with A16G A39U G50A C85U C99A, A16U A20U U146A is higher in “polymerase ribozyme fitness (log ratio)” value: no more than -4.2 for the first, -3.95 for the second.

A16U A39C G71A C75U G94C G140A and A16U A20G C87A C93A G112U cannot be ordered by “polymerase ribozyme fitness (log ratio)” value: no more than -4.2 for the first, no more than -4.2 for the second.

Going from A16U C38A C85A to A16U A21U A23U A29C C85U A115G C125A, the “polymerase ribozyme fitness (log ratio)” value falls from -3.78 to no more than -4.2.

Going from A16U C18A A21C A73U G92U to A16G C18G A24G A41U C85U, the “polymerase ribozyme fitness (log ratio)” value falls from -2.75 to no more than -4.2.

A16G C35U C57A G68U G84C C85G U127C and A16U C27G U45G G48A C54A U78C G83U A97G G140A cannot be ordered by “polymerase ribozyme fitness (log ratio)” value: no more than -4.2 for the first, no more than -4.2 for the second.

Going from A16U A28G U31G C38U C96G G136U U145G to A16U C38U C51U A73G G92U G94A A98C U151A, the “polymerase ribozyme fitness (log ratio)” value rises from no more than -4.2 to -3.96.

A16C U55A G58C G83C C85A and A16G U53A G94A G133C A137G A142U G152C cannot be ordered by “polymerase ribozyme fitness (log ratio)” value: no more than -4.2 for the first, no more than -4.2 for the second.

A16U C27U A29C U44G C87A C114U and A16U A40C C51A A52G C54U C76A C87G A89U A91U cannot be ordered by “polymerase ribozyme fitness (log ratio)” value: no more than -4.2 for the first, no more than -4.2 for the second.

A16G A39U A47C G58A G141U and A16U A23U C51U G86A C125U G126C cannot be ordered by “polymerase ribozyme fitness (log ratio)” value: no more than -4.2 for the first, no more than -4.2 for the second.

First: A16G G50C
Second: A16U A17G C85G
The “polymerase ribozyme fitness (log ratio)” value of the first is lower: no more than -4.2 for the first, -4.18 for the second.

A16U A22U C87G C105A and A16U A52C U90G U139G cannot be ordered by “polymerase ribozyme fitness (log ratio)” value: no more than -4.2 for the first, no more than -4.2 for the second.

A16G A49U G62A G92A C96A and A16G C18U U31G C35A C43A C95G C103U cannot be ordered by “polymerase ribozyme fitness (log ratio)” value: no more than -4.2 for the first, no more than -4.2 for the second.

A16G G58A C75G G117A and A16U A26U U56A U104G G126A A138G A142C cannot be ordered by “polymerase ribozyme fitness (log ratio)” value: no more than -4.2 for the first, no more than -4.2 for the second.

A16G A30U G83U U127G and A16U A37U C79A C99U U139A A142U cannot be ordered by “polymerase ribozyme fitness (log ratio)” value: no more than -4.2 for the first, no more than -4.2 for the second.

A16U A24U A37C U44C G50A A64C G71A U77A G83A A89C G126A and A16C U33A C54A C85A A91G C125G G133U cannot be ordered by “polymerase ribozyme fitness (log ratio)” value: no more than -4.2 for the first, no more than -4.2 for the second.

A16G A29G A47U C57U A73C C93G A98G A115G and A16U A21G C32U G50C U151G cannot be ordered by “polymerase ribozyme fitness (log ratio)” value: no more than -4.2 for the first, no more than -4.2 for the second.

A16U C36U C72A and A16G G68C C75U G94C A98U C105A G143U cannot be ordered by “polymerase ribozyme fitness (log ratio)” value: no more than -4.2 for the first, no more than -4.2 for the second.

A16U A23C G46U U61A A66G C87U and A16U C32A A39C G81C A107G A120C cannot be ordered by “polymerase ribozyme fitness (log ratio)” value: no more than -4.2 for the first, no more than -4.2 for the second.

A16G G34C C35A C54A C93A and A16G A40C C57A U77C G92U cannot be ordered by “polymerase ribozyme fitness (log ratio)” value: no more than -4.2 for the first, no more than -4.2 for the second.

A16U C35G A60G G68C G92C C95U C114A A121G and A16U C36U C43U U61A G92C C103A G117U C149A cannot be ordered by “polymerase ribozyme fitness (log ratio)” value: no more than -4.2 for the first, no more than -4.2 for the second.

A16U C27A C51U A52G C75G C96U and A16U A22U A30C U61G G83U C85A cannot be ordered by “polymerase ribozyme fitness (log ratio)” value: no more than -4.2 for the first, no more than -4.2 for the second.

A16G C51G C75U C87A A122G G140U and A16G U44G G74U U90C A115G cannot be ordered by “polymerase ribozyme fitness (log ratio)” value: no more than -4.2 for the first, no more than -4.2 for the second.

A16U A73C A142C and A16G G58A U61A C93U C103A A110G cannot be ordered by “polymerase ribozyme fitness (log ratio)” value: no more than -4.2 for the first, no more than -4.2 for the second.

For A16G A21C G59A U61A G71A A73G C93U C108A, the “polymerase ribozyme fitness (log ratio)” value was no more than -4.2.
